The campaign covered roughly 310,000 compounds. About 2,200 (0.71%) showed an effect of 50% or more. The effect is printed as a negative number. The list shows a part of the results.

Chain of human ether-à-go-go-related gene (hERG) potassium channel (Q12809 whole entry, looked up): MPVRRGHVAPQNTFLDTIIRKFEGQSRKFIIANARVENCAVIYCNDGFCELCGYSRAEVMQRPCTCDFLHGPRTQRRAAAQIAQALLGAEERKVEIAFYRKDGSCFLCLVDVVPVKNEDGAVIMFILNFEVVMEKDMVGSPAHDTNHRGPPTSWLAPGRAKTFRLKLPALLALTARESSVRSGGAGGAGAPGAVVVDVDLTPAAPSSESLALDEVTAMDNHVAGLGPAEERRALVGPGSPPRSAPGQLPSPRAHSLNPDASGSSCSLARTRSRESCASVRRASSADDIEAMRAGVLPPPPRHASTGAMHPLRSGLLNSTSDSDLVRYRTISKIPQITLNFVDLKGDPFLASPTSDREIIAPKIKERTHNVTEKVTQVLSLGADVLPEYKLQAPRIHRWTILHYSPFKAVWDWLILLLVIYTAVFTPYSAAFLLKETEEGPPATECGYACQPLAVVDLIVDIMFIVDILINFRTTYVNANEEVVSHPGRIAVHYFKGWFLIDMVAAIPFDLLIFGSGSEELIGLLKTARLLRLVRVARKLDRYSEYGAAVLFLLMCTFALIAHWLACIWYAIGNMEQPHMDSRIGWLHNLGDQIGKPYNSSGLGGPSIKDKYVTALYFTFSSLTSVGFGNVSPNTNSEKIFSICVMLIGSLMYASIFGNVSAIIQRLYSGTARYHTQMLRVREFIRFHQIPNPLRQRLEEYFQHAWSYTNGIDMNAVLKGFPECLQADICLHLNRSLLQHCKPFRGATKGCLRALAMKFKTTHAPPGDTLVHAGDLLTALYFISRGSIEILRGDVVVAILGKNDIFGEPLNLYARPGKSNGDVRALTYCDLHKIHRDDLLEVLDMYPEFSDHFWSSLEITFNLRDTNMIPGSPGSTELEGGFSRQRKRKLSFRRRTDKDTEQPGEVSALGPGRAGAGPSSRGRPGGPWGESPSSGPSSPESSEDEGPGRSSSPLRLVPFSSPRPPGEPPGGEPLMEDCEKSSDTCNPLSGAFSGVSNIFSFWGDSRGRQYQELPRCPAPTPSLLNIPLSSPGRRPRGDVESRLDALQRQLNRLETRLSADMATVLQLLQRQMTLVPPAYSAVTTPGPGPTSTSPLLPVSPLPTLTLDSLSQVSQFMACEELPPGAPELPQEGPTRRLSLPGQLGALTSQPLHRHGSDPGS

The assay has as its target human ether-à-go-go-related gene (hERG) potassium channel (human, UniProt Q12809). The assay is described as follows: primary screen, population patch clamp on CHO cells stably expressing hERG.
As for `CC(=O)O.COc1ccc(C2Nc3ccccc3C(=O)N2Cc2ccco2)cc1CN1C(=O)c2ccccc2C1=O` (stereo not drawn), the “hERG current change (%, negative = inhibition) at 1uM” value was determined as 4.8%. For `Cc1oc(/N=C/c2ccccc2)c(C#N)c1C` the value was 16.9%; for `COc1ccc(-c2nn(-c3ccccc3)cc2CN2CCCO2)c(F)c1`, 5.63%. For the compound `CCc1c(C(=O)NCc2ccc3c(c2)OCO3)[nH]c(C)c1C(C)=O`, the “hERG current change (%, negative = inhibition) at 1uM” value turned out to be 2.96%. For `CCCCCC(=O)Nc1c(-c2cccs2)c(=O)c2ccccc2n1C` the value was -1.1%. Regarding `COCCCN1C(=O)C(=O)/C(=C(/O)c2ccc(OC(C)C)cc2)C1c1ccc(O)c(OC)c1` (stereo not drawn), the “hERG current change (%, negative = inhibition) at 1uM” value came out at 5.77%. For `Cc1ccc(CN2CC34C=CC(O3)C(C(=O)NCc3ccc5c(c3)OCO5)C4C2=O)cc1` (stereo not drawn) the value was 0.0257%; for `CC(=O)c1oc2ccccc2c1NC(=O)CN1CCCCC1.Cl`, 13%; for `CCn1c(SCC(=O)NNC(=O)c2ccc(OC)cc2)nnc1-c1ccco1`, 4.07%. For `Cc1nnnn1/C(=C\c1ccccc1)C(=O)OCC(=O)Nc1cccc(S(=O)(=O)N(C)C)c1` the value was 1.81%. Regarding `COc1cccc(CNC(=O)CSc2cc(=O)n(C)c3ccccc23)c1`, the “hERG current change (%, negative = inhibition) at 1uM” value is listed as 10.4%. With `Cc1noc(C)c1C(=O)NCCC1=CCCCC1`, the “hERG current change (%, negative = inhibition) at 1uM” value was -2.28%.

With `CC1CCC(NC(=O)c2ccc(CS(=O)(=O)Cc3ccccc3F)o2)CC1` (stereo not drawn), the “hERG current change (%, negative = inhibition) at 1uM” value was -6.45%.

Consider `Cn1c(=O)c(C(=O)COC(=O)c2cc(C3CC3)nc3ccccc23)c(N)n(Cc2ccccc2)c1=O`, for which the “hERG current change (%, negative = inhibition) at 1uM” value is on record as 14.2%. For `Cc1cc(NS(=O)(=O)c2ccc(NC(=O)CSc3nc4ncc(Br)cc4[nH]3)cc2)nc(C)n1` the value was 13.9%. Turning to `CC(=O)Nc1ccc(NC(=S)NC(=O)/C=C/c2ccccc2)cc1`, the “hERG current change (%, negative = inhibition) at 1uM” value amounted to 7.76%. Under `NC(=O)c1nsc(C(=O)N(Cc2cccnc2)C(C(=O)NCc2ccccc2)c2ccc(O)cc2)c1N` (stereo not drawn) stands 10.5%; under `Cc1cc(C)cc(NC(=O)CSc2nnc(NC(=O)C3CC3)s2)c1`, 15.9%.

As to `O=C(Nc1cc(S(=O)(=O)N2CCOCC2)ccc1N1CCOCC1)c1cnccn1`, the “hERG current change (%, negative = inhibition) at 1uM” value is reported as 6.97%. Under `O=c1[nH]c(=O)c2nc3c4ccccc4c4ccccc4c3nc2[nH]1` stands 8.18%.

For the compound `CCCc1nc(C(C)(C)O)c(C(=O)O)n1Cc1ccc(-c2ccccc2-c2nn[nH]n2)cc1`, the “hERG current change (%, negative = inhibition) at 1uM” value was 4.96%. Under `CN1CCN(c2ccc(NC(=O)c3cccs3)cc2)CC1` stands 15.3%; under `COc1cc(NC(=O)CSc2nnc(NC(C)C)s2)cc(OC)c1OC`, 12.7%; under `O=C(C1=C[C@H](c2csc3ccccc23)C[C@H](OCc2ccc(CO)cc2)O1)N1CCCCCCC1`, 9.3%.

Regarding `O=C(COC(=O)Cc1ccc(F)cc1)NC1CCCCC1`, the “hERG current change (%, negative = inhibition) at 1uM” value came to 13%. Take `COc1ccc(CCn2c(SCCN3CCCCC3)nc3ccccc3c2=O)cc1OC`: the “hERG current change (%, negative = inhibition) at 1uM” value was -8.22%. `COC(=O)CC1C(=O)NCCN1C(=S)NC(=O)c1sc2ccccc2c1Cl` (stereo not drawn): the “hERG current change (%, negative = inhibition) at 1uM” value stood at 5.08%. As to `COc1cccc(NC(=O)c2c([N+](=O)[O-])cnn2C)c1`, the “hERG current change (%, negative = inhibition) at 1uM” value is on record as 15.3%.

As to `O=C(CCN1C(=O)c2ccccc2S1(=O)=O)Nc1nc2c(s1)CCCC2`, the “hERG current change (%, negative = inhibition) at 1uM” value stood at 8.87%. Regarding `COc1ccc(CCn2cnc3c([nH]c4ccccc43)c2=O)cc1`, the “hERG current change (%, negative = inhibition) at 1uM” value is recorded as 11%. In the case of `Cc1ccc(CN2CCCC(CO)(Cc3ccccc3C)C2)s1` (stereo not drawn), the “hERG current change (%, negative = inhibition) at 1uM” value stood at 6.49%. For `COc1ccc(CN2C(=NC(=O)C3CCCO3)SC3CS(=O)(=O)CC32)cc1` (stereo not drawn) the value was -1.04%; for `Cc1ccc(C(=O)NCC(=O)OCC(=O)N(CC(C)C)c2c(N)n(Cc3ccccc3)c(=O)[nH]c2=O)cc1`, -4.67%; for `Cc1c(CN2CCC(CO)(CC3CCCCO3)CC2)cnn1C` (stereo not drawn), 21.7%. In the case of `CC(C)(C)c1ccc(C(=O)NCC(=O)OCC(=O)Nc2ccccc2[N+](=O)[O-])cc1`, the “hERG current change (%, negative = inhibition) at 1uM” value came out at 6.55%.

`CCc1nc(SCC(=O)c2cc(C)ccc2C)n[nH]1`: the “hERG current change (%, negative = inhibition) at 1uM” value is listed as 5.96%.

Regarding `COc1ccc(CCNC(=O)COC(=O)c2cc(OC)c(OC)cc2OC)cc1`, the “hERG current change (%, negative = inhibition) at 1uM” value was determined as 6.48%.

For `O=C1N[C@@H](Cc2ccccc2)C(=O)N2[C@H]3Nc4ccccc4[C@@]3([C@]34C[C@H]5C(=O)N[C@@H](Cc6ccccc6)C(=O)N5[C@H]3Nc3ccccc34)C[C@@H]12`, the “hERG current change (%, negative = inhibition) at 1uM” value is 16.8%. For `Cc1[nH]n(-c2cccc3ccccc23)c(=O)c1/C=N/c1sc2c(c1C#N)CCC2` the value was 9.06%; for `Cc1c(NS(=O)(=O)c2ccc(C(=O)NCc3ccccc3)cc2)c(=O)n(-c2ccccc2)n1C`, 4.95%. Under `Cc1ccsc1-c1nc(CN(C)C(C2CC2)C2CC2)c(C)o1` stands -48.7%; under `Cl.Clc1ccc2sc(C3CCNCC3)nc2c1`, 15.8%.

(Values after paper PMC4336329 (PLoS ONE, 2015).)
